# The campaign covered roughly 310,000 compounds. About 14,000 (4.5%) showed an effect of 50% or more. The effect is printed as a negative number. The list shows a part of the results.
# Target: human ether-à-go-go-related gene (hERG) potassium channel (human, UniProt Q12809)
# Experiment: primary screen, population patch clamp on CHO cells stably expressing hERG
# 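Also: peak tail current of the secondary pulse compared with the same well before compound.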
# Sequence of human ether-à-go-go-related gene (hERG) potassium channel (Q12809 whole entry, looked up): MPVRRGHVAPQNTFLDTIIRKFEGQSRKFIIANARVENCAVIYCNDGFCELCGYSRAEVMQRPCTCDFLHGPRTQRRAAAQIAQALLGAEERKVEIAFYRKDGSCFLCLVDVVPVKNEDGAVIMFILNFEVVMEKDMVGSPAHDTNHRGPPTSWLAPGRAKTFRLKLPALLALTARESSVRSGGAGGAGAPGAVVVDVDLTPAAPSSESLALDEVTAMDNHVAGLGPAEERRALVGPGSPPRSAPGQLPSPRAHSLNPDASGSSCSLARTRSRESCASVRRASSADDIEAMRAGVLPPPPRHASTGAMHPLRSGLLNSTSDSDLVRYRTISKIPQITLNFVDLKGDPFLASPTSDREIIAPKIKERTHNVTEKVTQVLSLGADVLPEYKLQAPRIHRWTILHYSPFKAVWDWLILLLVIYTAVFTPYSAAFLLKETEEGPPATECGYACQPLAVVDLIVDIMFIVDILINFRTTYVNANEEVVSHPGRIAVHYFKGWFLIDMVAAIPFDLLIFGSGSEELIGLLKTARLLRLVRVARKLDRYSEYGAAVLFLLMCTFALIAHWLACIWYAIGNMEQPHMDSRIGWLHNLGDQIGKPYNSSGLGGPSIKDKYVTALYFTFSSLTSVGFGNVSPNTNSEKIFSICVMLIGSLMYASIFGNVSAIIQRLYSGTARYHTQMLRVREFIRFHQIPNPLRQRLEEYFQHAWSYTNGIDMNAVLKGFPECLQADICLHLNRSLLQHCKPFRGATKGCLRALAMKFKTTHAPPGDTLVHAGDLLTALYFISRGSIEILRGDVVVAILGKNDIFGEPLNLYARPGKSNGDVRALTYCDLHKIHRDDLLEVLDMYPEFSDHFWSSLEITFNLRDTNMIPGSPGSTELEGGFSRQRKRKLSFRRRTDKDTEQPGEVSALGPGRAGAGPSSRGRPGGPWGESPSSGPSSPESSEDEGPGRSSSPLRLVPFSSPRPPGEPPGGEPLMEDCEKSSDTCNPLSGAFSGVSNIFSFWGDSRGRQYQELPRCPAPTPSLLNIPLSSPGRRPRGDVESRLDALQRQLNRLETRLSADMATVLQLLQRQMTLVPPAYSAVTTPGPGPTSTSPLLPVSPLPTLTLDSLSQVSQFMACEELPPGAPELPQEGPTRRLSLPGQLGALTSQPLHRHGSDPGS
row,Structure (SMILES),"hERG current change (%, negative = inhibition) at 10uM"
1,CC(N=Cc1nc(-c2ccccc2)oc1O)c1ccccc1 (stereo not drawn),-10.7%
2,Cc1ccc(C)c(Cn2c(C(=O)OC(C)C)cc3c2ccn3C)c1,-6.5%
3,CCN1C(=O)[C@@H]2[C@@H](c3ccc(-c4ccc(OC)cc4)c(OC)c3)N3CCCC[C@@]3(C(=O)OC)[C@@H]2C1=O.O=C(O)C(F)(F)F,10.6%
4,COc1cc(NC(=O)CC(C)n2ccnc2)cc(OC)c1 (stereo not drawn),10.7%
5,CNc1nc(C)c(C#N)cc1C(C)=O,2.47%
6,CCOC(=O)N1CCC(Nc2c(N3CCN(c4cccc(C(F)(F)F)c4)CC3)c(=O)c2=O)CC1,-76.8%
7,CC(=O)Nc1cccc(NC(=O)c2ccccc2OCc2ccccc2)c1,13.5%
8,Cc1sc(NC(=O)c2ccco2)c(CN2CCN(c3ccc(F)cc3)CC2)c1C,12.7%
9,N#C/C(=C\c1ccc(Br)s1)C(=O)N1CCN(c2ccccc2)CC1,-12.3%
10,COc1ccc(CCNC(=O)CSc2nc(C)cc(C)n2)cc1OC,9.5%
11,CCN(CC(=O)NCc1cccnc1)S(=O)(=O)c1ccc(OC)cc1,-28.3%
12,COc1ccc(C2(CNS(=O)(=O)c3ccccc3)CCOCC2)cc1,-4.62%
13,Cc1cccc(NC(=S)N/N=C(\c2ccccc2)C(C)C)c1,-1.5%
14,COc1cc(Cl)c(C)cc1NC(C)C(=O)Nc1cc(C(F)(F)F)ccc1N1CCOCC1 (stereo not drawn),-2.59%
15,COc1cccc2cc(-c3cn4cccc(C)c4n3)c(=O)oc12,17.5%
16,COc1ccc(Cl)cc1NC(=O)C(C)Sc1n[nH]c(N)n1 (stereo not drawn),3.42%
17,CSc1nsc(SC)c1NC(=O)N1CCCCC1,2.74%
18,Cc1ccc(S(=O)(=O)Nc2ccccc2C(N)=O)cc1,2.71%
19,C/C(=C\C(=O)c1c(O)cc(C)oc1=O)N(C)C,15.4%
20,COC(=O)c1cc2c(-c3ccccc3)c(C)c3ccccn3c-2c1C(=O)OC,15.5%
21,Cc1cccc(NC(=O)c2ccc(Cl)c(S(=O)(=O)N3CCCCC3)c2)n1,-71.3%
22,CCC(C)NS(=O)(=O)c1ccc(OCC(=O)Nc2ccc3c(c2)OCCO3)cc1 (stereo not drawn),-26.3%
23,Cc1ccc(S(=O)(=O)N(C)C)cc1NC(=O)COC(=O)/C=C/c1ccc(F)cc1,-4.42%
24,CCCCCCCCCCCCCCCC(O)C(N)CO (stereo not drawn),1.57%

# Source: paper PMC4336329 (PLoS ONE, 2015)
